The source gives no read counts; variants with many changes may rest on few reads.

The labels stand for the following.
B1: CPEB3 Ribozyme (parent)
chain: UAACAGGGGGCCACAGCAGAAGCGUUCACGUCGCAGCCCCUGUCAGAUUCUGGUGAAUCUGCGAAUUCUGCUGUAUAUCUC

The variants in the data set derive from B1. In words: self-cleavage, relative activity (ratio to wild type); higher = more cleavage; in vitro, sequencing. The essentials:
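Barcoded CPEB3 ribozyme mutants, produced by rounds of error-prone PCR, self-cleaved while being transcribed with T7 RNA polymerase for 5 hours at 37°C and during a subsequent 15 min DNase I step before EDTA was added. Sequencing of template-switched cDNA on Illumina gave cleaved and total reads, and DNA sequencing assigned barcodes to variants. Each variant's relative activity is its cleaved/total read fraction divided by the unmutated ribozyme's fraction, averaged across three batches. A variant needed a minimum of 5 reads.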
Consider C11G U41C U54A, for which the self-cleavage amounted to 0.8.
For the variant G10A U41A U80C, the self-cleavage was found to be 0.2.
For C11A U58C A77U the value was 0.33; for C11U U25A C39G A64G U67A U74G, 0.1; for G10A U31A U41C, 0.09.
On to C12A A15U A64G U72C, for which the self-cleavage was determined as 1.
For the variant C11A A35U A65G A77G, the self-cleavage was determined as 0.12.
C11A A18C U43A: the self-cleavage turned out to be 0.11.
Take G10U U74C U78A: the self-cleavage is 0.26.
C11U U26C U74C: the self-cleavage came to 0.43.
For C11U A13U U25G G30A U74C U78A the value was 0.07.
On to C12A A15U A35G, for which the self-cleavage worked out at 0.79.
G10C C14G A18G A20G C40U U51A G52U: the self-cleavage amounted to 0.04.
For G10A U54C A75G the value was 0.13; for C11G U41A A75U, 0.08; for C11G A28G G30A A45U A56U, 0.06.
For C11G U26A U31C C40A U43C U58C U66C the value was 0.04; for C11A C37U U43A A65G U80A, 0.07; for C11G U48C A64G U67C, 0.08.
For C11A A13G U72A A77G the value was 0.23; for G10U U41G U58C U60C, 0.35.
For the variant C11G A18G C32A A45G U49C U80C, the self-cleavage was found to be 0.24.
For C11G U26A U31A G55U A64G U67A, the self-cleavage is 0.04.
Consider C11U C40U U48C C50U U51C U54A A56U, for which the self-cleavage was determined as 0.04.
For C12A A21G C29G C59U A65G the value was 0.14.
For the variant C11G A18G C37A A45C A56G A65G, the self-cleavage amounted to 0.03.
In the case of C11G U25C U26G A56C U80C, the self-cleavage worked out at 0.29.
As to G10C U41G U48C U80A, the self-cleavage was 0.04.
Consider G10C U25C C27A U31C C44A, for which the self-cleavage was found to be 0.06.
With G10A G30A U41A U51A A56G, the self-cleavage amounted to 0.04.
As to C11G U43A U54C U67C, the self-cleavage stood at 0.06.
Take G10A U31C U67C A77U: the self-cleavage came out at 0.08.
As to C11G A35G A75G, the self-cleavage was 0.45.
Then G10C A15G A47G C68U U69C U72A, with 0.07; and C12A A15U A35G U41C U54C U60A U69A, with 0.12; and G10A U49G U51A U67C, with 0.11.
Consider C11G C39G U41A U54A U72C, for which the self-cleavage is 0.08.
For the variant C11U U49C U67G U69G, the self-cleavage came to 0.14.
In the case of G10A U31G U41G G55U U67C A75G, the self-cleavage stood at 0.04.
As for G10A U25A U26C C39A U72A, the self-cleavage was determined as 0.14.
For G10C U54C U78A the value was 0.19; for C12A G61A C81U, 1.08.
In the case of C12A A45U G73C, the self-cleavage stood at 1.13.
On to C11U A35G U43C U54C U60G, for which the self-cleavage came out at 0.2.
As to G10C U49A U58A U76C, the self-cleavage is 0.25.
Take C11G U41A U74C U80C: the self-cleavage came to 0.5.
On to C11U A18G A56G U72C, for which the self-cleavage is 0.25.
Regarding C11A A13G U69C, the self-cleavage was determined as 0.08.
C11U C34G U49C A56G U72C: the self-cleavage is 0.11.
On to C11A A13G U41C, for which the self-cleavage was 0.43.
Turning to G10C U25A U51A U76C A77U U78A, the self-cleavage came to 0.06.
For the variant C11A A20U A75G, the self-cleavage stood at 0.35.
In the case of G10A C40A U41C U43C U54A U66C U74C, the self-cleavage turned out to be 0.03.
Regarding G10U A35U U78C, the self-cleavage was determined as 0.09.
For the variant G10A C40U A56G G61A U69A, the self-cleavage is 0.04.
Take G10U A18G A20C C29U G53U U54G: the self-cleavage came to 0.12.
For C12A A15U G24U A57G U66C U76C the value was 0.04; for C11G C17U A18U, 0.08; for C11U A13G A28U U41C U49C A64G, 0.05.
G10C A13C U25C C27G U78C: the self-cleavage is 0.15.
On to C11U A18G U26C A28G U51C, for which the self-cleavage amounted to 0.15.
C11A U43A A64U: the self-cleavage was 0.08.
Take C11A A18G U43C U58C U74A U78C: the self-cleavage is 0.
For C12A A64U U67A U69G the value was 0.26; for C11G A65G U74A U78C, 0.13; for C11G A35G U78C C79U, 0.36.
Then C12A A15U U54G U72C, with 0.74; and G10U U54A A57G, with 0.2.
G10U A28U U41C A77U: the self-cleavage is 0.16.
Then C11U A28C C40U C59G, with 0.06; and C11G A35U U66A, with 0.07.
Take G10A U49C A64C A65G: the self-cleavage was 0.27.
Regarding G10C A18C U25C A56U U69A, the self-cleavage is 0.
For C11G A77G C79G the value was 0.46; for C11G A20G A64U U72A U78C U80C, 0.04; for G10C G19U G55A A75G, 0.04.
For C12A A15U A28U U48C U67C the value was 0.17; for C12A A21C U51A U58C U60A, 0.07; for G10A U31C A56G U60A A64G U72A, 0.08.
Then C11U A20U U74A, with 0.37.
Take C11G U31G U48A U74G: the self-cleavage came out at 0.41.
C11U U58G A64U U72C U76A: the self-cleavage was determined as 0.06.
Then C11A A15G C44U U54C A57U, with 0.09.

The record behind these values is the RNAGym collection of RNA variant scans (doi:10.1093/nar/gkz1192).
